From the BET-seq Pho4 binding data (Le et al. 2018)
The list shows a part of the results. The energies were worked out here from pooled read counts, against the library average; single values are noisy.

These sequences were tested against T1, Pho4 (S. cerevisiae) (UniProt P07270) (assay: relative binding free energy (BET-seq); higher = weaker binding). Conditions: reference: library average.
T1 sequence: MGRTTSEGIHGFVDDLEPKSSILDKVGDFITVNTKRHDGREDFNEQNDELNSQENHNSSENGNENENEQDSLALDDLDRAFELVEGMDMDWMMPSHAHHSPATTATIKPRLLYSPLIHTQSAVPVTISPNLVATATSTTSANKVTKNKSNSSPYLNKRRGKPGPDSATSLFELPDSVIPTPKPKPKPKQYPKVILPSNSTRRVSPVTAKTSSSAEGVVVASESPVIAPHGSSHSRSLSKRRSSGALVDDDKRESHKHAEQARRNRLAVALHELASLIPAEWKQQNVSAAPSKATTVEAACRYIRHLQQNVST

Row | Sequence | relative binding free energy [kcal/mol]
1 | GAGAGCACGTGTGGGC | 0.08
2 | GGTTCCACGTGCGGTT | 0.05
3 | TGTCACACGTGTGAGT | 0.13
4 | TTTCACACGTGTTGTG | -0.03
5 | TGATACACGTGCGGGA | 0.04
6 | AGTGACACGTGGGTCA | -0.12
7 | TGGGTCACGTGCAGTC | -0.02
8 | TATTTCACGTGAGATT | 0.37
9 | TTATGCACGTGTGACT | -0.06
10 | GGATTCACGTGGGCTT | 0.19
11 | TGTATCACGTGGGTTT | 0.04
12 | TGAGACACGTGCGTGG | -0.1
13 | CTTTTCACGTGGGGGA | 0.02
14 | GATGGCACGTGATGCG | 0.17
15 | TTATTCACGTGCGTAA | 0.19
16 | TTAGGCACGTGATACA | -0.05
17 | GAAGTCACGTGGTATG | 0.24
18 | GGGTTCACGTGCTGGG | 0.33
19 | GCTAGCACGTGTATGG | 0.02
20 | CGAGACACGTGTAGGG | 0.05
21 | AGTGACACGTGAGCGG | -0.03
22 | CCGGGCACGTGATGTG | -0.02
23 | GGGTGCACGTGCGTAA | -0.17

Row | Sequence | relative binding free energy [kcal/mol]
24 | TGGCTCACGTGCGTGT | 0.15
25 | TGTGGCACGTGAGCTA | -0.01
26 | ATTGGCACGTGTTGGC | -0.07
27 | GTGTCCACGTGGTATG | -0.02
28 | ATAAGCACGTGATGTG | 0.01
29 | CGGTACACGTGATAGG | 0.05
30 | GTGGACACGTGGTGAG | 0.02
31 | TAGCGCACGTGGTAGT | -0.07
32 | TGGGCCACGTGGGCTA | -0.24
33 | AGGGACACGTGAGGAG | 0.25
34 | TGGGACACGTGACTGG | 0.07
35 | CGGGGCACGTGCGTAT | -0.25
36 | AGATGCACGTGAAGAT | 0.16
37 | GTGTGCACGTGTTCAG | -0.02
38 | GGATCCACGTGATGGG | 0.28
39 | TATGGCACGTGATCAT | -0.15
40 | TGAGGCACGTGATTAA | -0.03
41 | GGGGACACGTGTAGGT | 0
42 | TTTGTCACGTGTGAAT | 0.16
43 | ATTATCACGTGGTTCA | -0.03
44 | ACTGTCACGTGTGATT | 0.08
45 | ATGGTCACGTGAAGTC | 0.29
46 | TTACGCACGTGGGTCT | -0.26

Row | Sequence | relative binding free energy [kcal/mol]
47 | TATTGCACGTGGTCTA | -0.25
48 | TTGTTCACGTGGAGTA | 0.28
49 | CTAGTCACGTGAGGGC | 0.27
50 | AGATTCACGTGTGTTG | 0.26
51 | GTACGCACGTGCGTTT | 0.06
52 | CGTTTCACGTGTAGCT | 0.29
53 | AGGCTCACGTGGTTTA | 0.16
54 | GGTGACACGTGACGGG | 0.16
55 | ACAGGCACGTGTTTGT | -0.15
56 | TTTATCACGTGTCGTT | 0.27
57 | GCTGGCACGTGGGGAA | -0.18
58 | AAATGCACGTGTGTAG | -0.01
59 | GGATGCACGTGGTGAA | -0.02
60 | ATCTGCACGTGGGTAT | -0.13
61 | GGCAGCACGTGTGGTG | 0.06
62 | CTGGTCACGTGTGGGA | 0.17
63 | ATATACACGTGTATAT | 0.11
64 | TGTTGCACGTGATTTG | 0.21
65 | TGGTCCACGTGTAAGT | -0.01
66 | TTTTACACGTGCGGGG | 0.04
67 | AGTGCCACGTGTGGGT | -0.02
68 | AATTGCACGTGAGCGA | 0.31
69 | TCATTCACGTGGGATT | 0.21

Row | Sequence | relative binding free energy [kcal/mol]
70 | TGTAACACGTGTTTTC | -0.02
71 | ATGGACACGTGTGTTA | -0.01
72 | ATTTTCACGTGGTTTC | 0.07
73 | AATTTCACGTGTTGGT | 0.18
74 | TATTGCACGTGTATTA | 0.03
75 | TCCGTCACGTGGGTTA | -0.07
76 | TTGCGCACGTGTGTAT | -0.12
77 | TGCATCACGTGGTGTT | 0.03
78 | GGATACACGTGGGTGT | -0.08
79 | TTGAACACGTGTAAGA | 0.21
80 | TTTATCACGTGTCTAA | 0.2
81 | GTTGGCACGTGATTGA | 0.06
82 | GGTGGCACGTGTTCCG | -0.05
83 | TTGTACACGTGGCGGA | -0.08
84 | TTCTACACGTGGATTG | 0.01
85 | CCGGTCACGTGATTGG | 0.23
86 | GGATTCACGTGTTATT | 0.37
87 | TTAAACACGTGGGTGC | -0.2
88 | AAGATCACGTGGAAGG | 0.16
89 | TTGTTCACGTGGGACT | 0.26
90 | TGCTTCACGTGAGATT | 0.29
91 | TTTAACACGTGCGAGT | -0.05
92 | GTTTGCACGTGTCATT | -0.04

Row | Sequence | relative binding free energy [kcal/mol]
93 | CTTATCACGTGGGGTA | -0.12
94 | TAGTGCACGTGTTTGT | -0.09
95 | ATGATCACGTGTAGAT | 0.19
96 | TGTTTCACGTGTGCGA | 0.23
97 | CGGGGCACGTGAAGGT | 0.22
98 | TTCAACACGTGTTTTG | 0.1
99 | AGTTTCACGTGGGATA | 0.26
100 | GGGGACACGTGTGTCG | 0.11
101 | CGGTGCACGTGAGTTT | 0.25
102 | CTGGTCACGTGAGTTG | 0.36
103 | GGTTCCACGTGTTATA | 0.24
104 | GGTATCACGTGGATTA | 0.28
105 | GGAGTCACGTGGAAAG | 0.06
106 | ATTAGCACGTGAAGTT | 0.24
107 | GTTGGCACGTGCTAGC | 0.11
108 | TCGGTCACGTGCGTTT | -0.06
109 | GAAGGCACGTGTGTTG | 0
110 | GTTGGCACGTGTTTCG | 0.08
111 | CTCGTCACGTGTTTGT | 0.12
112 | GGGGTCACGTGGAAGA | 0.1
113 | TCAGTCACGTGATGTA | 0.23
114 | GATTCCACGTGGGGAG | 0.08
115 | TGGTGCACGTGATGGG | 0.11
